PubChem BioAssay AID1508624 (National Center for Advancing Translational Sciences (NCATS), 2021)
Screen size: about 48,000 compounds; about 120 (0.25%) were called active. About 4% were inconclusive and are not listed. Calls come from the whole dose curve; as a rule, active = well fitted activation curve with a large enough effect; inconclusive = small, poorly fitted or top-dose-only effect, or another doubt; inactive = no such curve, though single readings can be large or run the other way. The list shows a part of the results.

test: Primary qHTS for Identification of Small Molecule Activators of Huntingtin-Antisense Promoter Activity; details: HEK293 HTT-AS promoter firefly luciferase reporter, 24 h; series mostly up to 57.5 µM; activity change, positive = activation: at the top concentration; note: nearly all actives have a fitted effect of over 55% in size
In short: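 Luminescence was read after Dual-Glo reagent and a 10 min room-temperature incubation. Values were normalized to vehicle (0% activity) and zero RLU (-100% activity). Reporter HEK293 cells had been exposed to compounds (up to 57.5 uM final) for 24 h.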

Activity change, positive = activation, inactive:
COc1cc(-c2noc(-c3nnn(-c4ccc(Cl)cc4)c3C)n2)cc(OC)c1OC -7.13%
Cc1ccc(-n2nc(CO)c(C(=O)NCCc3ccccc3)n2)cc1C -14.2%
CCCc1nn(C)c2c(=O)[nH]c(-c3cc(S(=O)(=O)N4CCN(C)CC4)ccc3OCC)nc12
CCc1cccc(C)c1Nc1c(-c2ccc(N3CCOCC3)cc2)nc2ncccn12 -13.3%
CC(=O)c1ccc(NC(=O)C2CCCN(S(=O)(=O)c3cn(C)cn3)C2)cc1 (stereo not drawn) -5.64%
Cc1c(CNC(C)c2ccccc2)c(C(=O)O)c(C)n1Cc1c(F)cccc1Cl (stereo not drawn) -19.7%
CCOc1ccc(-c2c(C)nn3c(C)c(C(=O)NCC(C)c4ccccc4)cnc23)cc1OCC (stereo not drawn) -29.8%
CCOC(=O)N1CCN([N+]([O-])=NOc2cc(ON=[N+]([O-])N3CCN(C(=O)OCC)CC3)c([N+](=O)[O-])cc2[N+](=O)[O-])CC1 -12.7%
Cc1ccc(CNC(=O)c2ccc3c(c2)N(Cc2cccc(Cl)c2)C(=O)CS3)cc1 -36.6%
Cc1cc(O)c(C(=O)c2cnc3c(c2)COc2ccccc2-3)cc1Cl -17.6%
CCOc1ccc(NC(=O)Cn2cc(C(=O)c3ccc(C)c(C)c3)c(=O)c3cc(F)ccc32)cc1 -7.95%
Cc1ccc(Cl)cc1NC(=O)Cn1c(=O)n(CCC(=O)N2CCc3ccccc3C2)c(=O)c2ccccc21 -8.62%
CN(C[C@@H]1COCCO1)S(=O)(=O)Nc1ccc2ccc3ncc(-c4cnn(C)c4)cc3c(=O)c2c1 -1%
COc1cc(NC(=O)CSc2nc3nc(C)c(Cc4ccccc4)c(C)n3n2)cc(OC)c1 -0.667%
CCOc1ccc2nc(N3CCCC(C(=O)NCCc4ccc(SC)cc4)C3)sc2c1 (stereo not drawn) 26.5%
CCN(c1ccc(C)cc1C)S(=O)(=O)c1nnc(NC(=O)CC(C)C)s1 -8.56%
CCOC(=O)c1cc2c(=O)n3ccccc3nc2n(Cc2ccco2)c1=NC(=O)c1ccccc1OC -6.78%
Cc1ccc(NC(=O)C2CCCN(c3nnc(C)c4c(C)n(-c5ccccc5)nc34)C2)cc1Cl (stereo not drawn) -20%
Cc1c2cnn(CC(=O)Nc3ccc(F)cc3F)c(=O)c2c(C)n1Cc1cccc(Cl)c1 -12.9%
Cc1cc(C)cc(OCC(=O)Nc2cccc(-c3nc4ccccc4[nH]3)c2)c1 -6.05%
O=C(Cn1c(=O)n(-c2ccc(F)cc2)c(=O)c2sccc21)Nc1cccc(C(F)(F)F)c1 -20.4%
COc1ccc(-n2nc3c(c2NC(=O)C(=O)N2CCN(C)CC2)CSC3)cc1 -7.81%
Cc1ccc(-n2nc3c(=O)n(C(C)C(=O)O)nc(C)c3c2C)cc1 (stereo not drawn) -5.54%
COc1ccc(Cn2c(C(=O)O)c(CNCCc3ccccc3Cl)c3ccc(C)cc32)cc1 -68.7%
CCC(=O)N1CCc2cc(S(=O)(=O)CCC(=O)NCc3ccc(F)cc3)ccc21 -27.6%
CC(C)NC(=O)c1cc2c(Cl)nc3ccccc3c2s1 -1.76%
Cc1ccc(N2C(=O)CS(=O)(=O)C23C(=O)N(Cc2ccccc2F)c2ccccc23)cc1Cl (stereo not drawn) -30.8%
O=C(COc1ccccc1Cl)Nc1ccccc1OCc1cc(=O)n2ccccc2n1 -3.6%
O=C(CN1C(=O)C2CCCCN2c2ccc(C(=O)N3CCCC3)cc21)NCc1ccccc1F (stereo not drawn) -8.16%
CN(c1ccccc1)C(CNS(=O)(=O)c1ccccc1)c1ccccc1 (stereo not drawn) -20.8%
CCCCN(CC)CCNc1ncnc2onc(-c3ccc(Cl)cc3)c12 -3.8%
COc1ccc(Cc2nnc(C(=O)NCCCN3CCN(c4ccccc4F)CC3)o2)cc1OC -30.8%
CC(C)COc1ccc(Nc2ncnc3ccc(Br)cc23)cc1 -19.5%
COC(=O)c1sccc1S(=O)(=O)N(CC(=O)NCc1ccc(F)cc1)c1ccc(C)c(C)c1 -18.6%
Cc1ccc(CN(Cc2ccco2)C(=O)c2cccc(C)c2)cc1 -27.7%
CNS(=O)(=O)c1cn(CC(=O)Nc2cccc(C(F)(F)F)c2)cc1S(=O)(=O)NC -11.4%
Cc1cccc(NC(=O)NC2COc3ccccc3C2)c1C (stereo not drawn) -11%
CNS(=O)(=O)c1cn(CC(=O)N2CCN(c3ccc(C)cc3C)CC2)cc1S(=O)(=O)NC -9.58%
CCCCS(=N)(=O)CCC(N)C(=O)O (stereo not drawn) 5.91%
Cc1cc(C)cc(NC(=O)C(=O)NCC(c2cccnc2)N2CCc3ccccc32)c1 (stereo not drawn) -22.4%
COc1cccc(C(=O)c2sc(Nc3ccc(F)c(Cl)c3)nc2N)c1 -9.97%
Cn1c(=O)c2sccc2n2c(CCC(=O)Nc3ccc(F)cc3)nnc12 -10.7%
C[C@@H]1CN(c2c(F)c(F)c3c(=O)c(C(=O)O)cn(C4CC4)c3c2F)C[C@H](C)N1 0.199% [at 25.1 µM, percent change from vehicle, -100% = no light]
COc1ccc(OC)c(-c2noc(N3CCN(c4cc(Cl)ccc4C)CC3)n2)c1 -30%
Cc1ccc(C)c(NC(=O)CSc2nnc(C)n3c2cc2occc23)c1 -7.48%
CCC1CCCCN1CCCNC(=O)c1ccc2c(c1)sc1nc(-c3ccc(F)cc3)cn12 (stereo not drawn) 12.6%
COc1ccccc1NC(=O)CN1CCN(CC(=O)Nc2ccc(F)c(F)c2)CC1 -31.6%
O=S(=O)(Nc1cccc(-c2ccc(N3CCOCC3)nn2)c1)c1cc(C(F)(F)F)ccc1Cl 11.5%
COc1ccc(C2c3c(-c4ccccc4O)n[nH]c3C(=O)N2CCc2ccccc2)cc1 (stereo not drawn) -40.1%
COC(=O)c1ccc(Cl)cc1NC(=O)Nc1nnc(N(C)Cc2ccccc2)s1 -20.8%
CCOC(=O)c1ccc(CN(Cc2ccc(Br)cc2)S(=O)(=O)c2cccc(C(F)(F)F)c2)cc1 -23.7%
COc1ccc2c(c1)c(=O)c(C(=O)c1ccc(C)cc1)cn2Cc1ccccc1F -24.5%
CCC(C)(C)C(=O)O[C@H]1C[C@@H](C)C=C2C=C[C@H](C)[C@H](CC[C@@H]3C[C@@H](O)CC(=O)O3)[C@H]21
Cc1cc(C)c(Cn2c(=O)n(-c3ccccc3Cl)c(=O)c3c(C)c(C(=O)N(C)C)sc32)c(C)c1 -15.2%
COc1ccc(N2CCN(C(=O)c3ccc4c(c3)N(Cc3cc(C)ccc3C)C(=O)c3ccccc3S4=O)CC2)cc1 (stereo not drawn) -28.4%
Cc1cn2c(=O)cc(COc3cccc(NC(=O)c4ccccc4Cl)c3)nc2s1 0.0601%
COc1cccc(N2CC(NC(=O)C3CCCCC3)CC2=O)c1 (stereo not drawn) -5.49%
COc1ccc(C(=O)Nc2nnc(S(=O)(=O)N3CCN(c4ccc(C)cc4)CC3)s2)cc1 0.899%
